Experimental data from PubChem BioAssay AID1508624 (National Center for Advancing Translational Sciences (NCATS), 2021).
Among all 48,000 compounds or so, about 120 (0.25%) were called active. Another 4% or so got no clear call; they are omitted. The call rests on the fitted dose curve; in most records, active means well fitted activation curve with a large enough effect; inconclusive means small, poorly fitted or top-dose-only effect, or another doubt; inactive means no such curve, though single readings can be large or run the other way. The list shows a part of the results.

experiment: Primary qHTS for Identification of Small Molecule Activators of Huntingtin-Antisense Promoter Activity; details: HEK293 HTT-AS promoter firefly luciferase reporter, 24 h; series mostly up to 57.5 µM; activity change, positive = activation: at the top concentration; further: nearly all actives have a fitted effect of over 55% in size
How it was run: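 Quantitative HTS used concentration series of up to 57.5 uM final on HEK293 luciferase reporter cells, 24 h at 37 degrees C. Readout was Dual-Glo firefly luminescence.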

Activity change, positive = activation, inactive:
COc1ccc(-n2nc(C(=O)N3CCC(C)CC3)c3c4ccccc4n(C)c3c2=O)cc1Cl -13.3%
CCc1nn(CC(=O)NCCc2ccc(OC)cc2OC)c(=O)c2cc3sccc3n12 -10.5%
COc1cccc(CNC(=O)Cn2cc3c(n2)-c2c(oc(C(=O)N4CCCC4)c2C)CC3)c1OC -29.1%
O=C(NCc1ccc2c(c1)CCN2C(=O)c1ccc(F)cc1)c1ccc(Br)o1 -25.7%
Cc1cc(C)c(NC(=O)Cn2nc3c(cc2=O)CCCC3)c(C)c1 -8.56%
COCCCN1C(=O)N(c2ccccc2)C(=O)C1CC(=O)Nc1ccc(F)cc1 (configuration not stated) 8.74%
CCCS(=O)(=O)c1ncc(Cl)c(C(=O)N(Cc2ccccc2)Cc2ccco2)n1 -89.3%
O=C(Nc1ccc(S(=O)(=O)Nc2ccccc2)cc1)N1CCCC1 -15.9%
COc1ccccc1NC(=O)N1CC(=O)Nc2sc3c(c2C1c1ccccc1)CCCC3 (configuration not stated) -12.9%
COc1ccccc1NC(=O)C1=C(C)Nc2c(C(=O)Nc3ccc(F)cc3)cnn2C1c1ccc(Cl)cc1 (configuration not stated) -38.1%
CCOc1ccc(CCNC(=O)CCCc2nnc3n(CC(C)C)c(=O)c4sccc4n23)cc1 -6.47%
COc1ccc2c(Sc3ccccc3)c(C(=O)NCc3cccc(OC)c3OC)[nH]c2c1 -7.08%
CCOC(=O)c1cc(S(=O)(=O)Nc2ccc(OC)c(Cl)c2)[nH]n1 -20.5%
CCOC(=O)C1(C)C=C(Nc2ccc(C(N)=O)cc2)C(=O)N1c1ccccc1 (configuration not stated) 5.35%
CN1C(=O)Cc2cc(S(=O)(=O)CCC(=O)Nc3cccc(C(F)(F)F)c3)ccc21 -6.93%
CC(C)OCCCn1c(SCc2cccc(Br)c2)nc2c(sc3ccccc32)c1=O 2.28%
COc1ccccc1Oc1nc2c(c(=O)n(C)c(=O)n2C)n1Cc1cccc(Br)c1 -27.5%
COCCNC(=O)c1ccc2c(c1)N(Cc1cccc(Cl)c1)C(=O)c1ccccc1S2(=O)=O -15.2%
Cc1ccc(OC(=O)c2cc(-c3ccccc3)nc3ccc(C)cc23)cc1 -9.15%
CC(=O)N1c2ccc(S(=O)(=O)NCC3CCC(C(=O)NCCC(C)C)CC3)cc2CC1C (configuration not stated) -14.6%
CCCc1noc(-c2ccc(N3CCCCC3)c([N+](=O)[O-])c2)n1 9.87%
Cc1nc2c(cnn2-c2ccccc2Cl)c(=O)n1-c1ccc(C(C)C)cc1 -31.7%
CCc1ccc(S(=O)(=O)c2nnn3c2nc(NCCc2ccccc2)c2sccc23)cc1 -23.4%
COc1cc(NC(=O)Cn2ncc3c(=O)oc4ccccc4c32)cc(OC)c1OC -0.808%
CN(C)S(=O)(=O)N(CC(=O)NCCSCc1ccccc1Cl)c1ccccc1 -21.2%
COc1cccc(-c2nc(SCC(=O)Nc3ccc4c(c3)OCO4)c(-c3ccccc3)[nH]2)c1 -15.8%
Cc1cccc(N2CCN(S(=O)(=O)c3cc(Br)cc4c3N(C(=O)C3CC3)CC4)CC2C)c1 (configuration not stated) -14.5%
COc1ccc(CCn2cc3c(c2-c2ccccc2Br)c(=O)n(C)c(=O)n3C)cc1OC -19.5%
O=S(=O)(c1ccccc1)c1nnn2c1nc(NCc1cccs1)c1sccc12 -12.7%
Cc1ccc2oc(C(=O)Nc3c(C(=O)Nc4ccccc4)oc4ccccc34)cc(=O)c2c1 2.44% [at 11.5 µM, percent change from vehicle, -100% = no light]
CCCOc1ccc(N2CC(C(=O)Nc3cccc(Cl)c3Cl)CC2=O)cc1 (configuration not stated) -15.2%
CCOc1ccc(CCNC(=O)CN2C(=O)COc3ccc(S(=O)(=O)N4CCC(C)CC4)cc32)cc1 -43.7%
Cc1ccc(NC(=O)CCn2cccn2)cc1Cl 6.79%
c1cncc(CN2CCC(n3ncc4c(N5CCOCC5)nc(-c5ccc6[nH]ccc6c5)nc43)CC2)c1 -35.5%
COc1ccc(NC(=O)Cn2c(=O)n(-c3ccccc3)c(=O)c3c4c(sc32)CCCC4)cc1 -9.59%
Cc1cc(C)cc(Nc2cc(-c3ccccc3)nc(C)n2)c1 -26.5%
CCCCN(C)c1nnc(NC(=O)Nc2cccc(C(C)=O)c2)s1 -6.04%
COC(=O)c1c(NC(=O)c2cc3nc(-c4ccc(OC)cc4)cc(C(F)(F)F)n3n2)sc2c1CCCC2 5.56%
Cc1ccc(NC2=CC(c3ccccc3F)N(c3ccc(C)cc3)C2=O)cc1 (configuration not stated) 6.87%
COc1ccc(-c2cc(NCc3ccc(F)cc3)n3cnnc3n2)cc1 -24.5%
Cc1cc(OCC(=O)NCC2(N3CCN(C)CC3)CCCCC2)cc(C)c1Cl -16.8%
O=C(Cc1ccccc1)Nc1sc2c(c1C(=O)Nc1ccccc1Cl)CCC2 -26.9%
CC(NCc1ccc2c(c1)nc(NC(=O)c1ccc(-c3cn[nH]c3)s1)n2CC(C)(C)O)C(C)(C)C (configuration not stated) -47.1%
O=c1[nH]c(=O)n([C@H]2O[C@H](CO)[C@@H](O)[C@@H]2O)cc1/C=C\Br -4.19%
Cc1ccc(NC(=O)CCc2nnc3n(CC(C)C)c(=O)c4ccccc4n23)cc1C -0.565%
Cc1ccc(-n2nc3c(N4CCC(C(=O)N5CCCCC5)CC4)nnc(C)c3c2C)cc1 -22.2%
CCCN1C(=O)C(Cc2nc3ccccc3c(=O)n2CC)c2ccccc21 (configuration not stated) -16.7%
